Test results: PubChem BioAssay AID463173 (ICCB-Longwood Screening Facility, Harvard Medical School, 2010)
Screen size: about 52,000 compounds; about 4,300 (8.3%) were called active. Cut-off read from the data, not from the text of the source: active = survival mostly below about 52% (no sharp cut-off); inactive = mostly above about 56%. This is one part of the list.

system: DeltatarO mutant; test: growth inhibition of S. aureus wild type versus tarO mutant, primary screen, teichoic acid synthesis inhibitors, RN4220, OD600 (AID 463173); conditions: OD600, 18 h, stronger effect = lower value, screened at 18.75 µg/mL (by protocol)

Q: CCOc1ccc(C2=NC(c3cccs3)=Nc3ccc(C(C)C)cc3N2)cc1 was tested. Which survival did it give?
A: inactive: 58%

Q: With CC(C)(Cc1nc2ccccc2[nH]1)c1nc2ccccc2[nH]1 as the compound, how does the survival read?
A: inactive: 97%

Q: Which survival does the source give for N#Cc1c(N2CCOCC2)nc(N2CCOCC2)c2c1CCN(Cc1ccccc1)C2 here?
A: inactive: 83%

Q: Which survival does the source give for CCOC(=O)c1c(NC(=O)c2ccc(S(=O)(=O)N(CCOC)CCOC)cc2)sc2c1CC(C)(C)NC2(C)C here?
A: inactive: 78%

Q: Which survival does the source give for Cc1ccccc1NS(=O)(=O)c1ccc(Br)s1 here?
A: inactive: 109%

Q: Which survival does the source give for C=CCNC(=O)c1ccc(N2C(=O)c3ccccc3C2=O)cc1 here?
A: inactive: 92%

Q: Cc1ccc(C(C)(C)C)c(OCC(=O)NCCc2nc3ccccc3[nH]2)c1 was tested. Which survival did it give?
A: inactive: 70%

Q: CC(C)(C)S(=O)(=O)c1cccc2ccccc12 was tested. Which survival did it give?
A: inactive: 99%

Q: For CC1CCN(C(=O)Cn2nnc3ccccc3c2=O)CC1, which survival is on record?
A: inactive: 102%

Q: COc1ccc(CCN2C(=O)c3oc4ccc(F)cc4c(=O)c3C2c2ccc(C(C)(C)C)cc2)cc1 (configuration not stated) was tested. Which survival did it give?
A: inactive: 73%

Q: Which survival does the source give for CCc1cccc(C)c1NC(=O)Cn1ccn(-c2ccc(F)cc2)c(=O)c1=O here?
A: inactive: 52%

Q: Which survival does the source give for CCOc1ccc(C2CC(=O)c3c([nH]c(C(=O)OCc4ccccc4)c3C)C2)cc1 (configuration not stated) here?
A: inactive: 88%

Q: With Cc1nc2ccc(S(=O)(=O)N(C)CC(=O)Nc3ccc(Br)c(C)c3)cc2s1 as the compound, how does the survival read?
A: inactive: 101%

Q: For Cn1c(C(=O)OCC(=O)NC2CCCCC2)cc2sccc21, which survival is on record?
A: inactive: 98%

Q: With CCn1c2ccccc2c2cc(/C=N/NC(=O)c3ccncc3)ccc21 as the compound, how does the survival read?
A: inactive: 87%

Q: For CCOC(=O)c1cccc(NC(=O)C2CCN(S(=O)(=O)c3ccc4c(c3)oc(=O)n4C)CC2)c1, which survival is on record?
A: inactive: 67%

Q: COc1ccc(S(=O)(=O)N(CCc2ccccc2)CC(=O)Nc2cccc(OC)c2)cc1 was tested. Which survival did it give?
A: inactive: 133%

Q: With CCc1ccc(C(=O)COC(=O)C(Cc2c[nH]c3ccccc23)NC(=O)c2ccc(Br)cc2)cc1 (configuration not stated) as the compound, how does the survival read?
A: inactive: 142%

Q: CCOc1ccc(C2c3cc(OCC)c(OCC)cc3CC(=O)N2c2ccc(C(=O)O)cc2)cc1OCC (configuration not stated) was tested. Which survival did it give?
A: inactive: 74%

Q: For COc1ccccc1N1CCN(c2ncnc3c2cnn3C)CC1, which survival is on record?
A: inactive: 83%

Q: Which survival does the source give for CC(C)(C)OC(=O)N1CCN(C(=O)OC(C)(C)C)CC1 here?
A: inactive: 98%

Q: Which survival does the source give for CCOc1ccccc1-n1cc2c(c1-c1ccc(OC)cc1)c(=O)n(C)c(=O)n2C here?
A: inactive: 88%

Q: Which survival does the source give for O=C(Nc1ccc(N2CCOCC2)cc1)c1ncn[nH]1 here?
A: inactive: 86%

Q: How did the survival turn out when Cc1ccc(N(C)C(=O)C2CCN(S(=O)(=O)c3ccc4c(c3)CCCN4C(=O)C3CCC3)CC2)cc1 was run?
A: inactive: 94%

Q: With COc1ccc(NC(=O)c2cn(-c3ccccc3)nc2-c2ccc(C)cc2)cc1 as the compound, how does the survival read?
A: inactive: 63%

Q: With COC(=O)c1ccc(NC(=O)CN2CCN(c3ccc(Cl)cc3)CC2)cc1 as the compound, how does the survival read?
A: inactive: 92%

Q: Which survival does the source give for O=C1CC(c2ccccc2)Cc2[nH]c(=O)c(C(=O)Nc3cccc(Cl)c3)cc21 (configuration not stated) here?
A: active: 8%

Q: Cc1ccccc1-c1nn2c(=O)cc(CN3CCN(C(=O)c4ccc(C(C)(C)C)cc4)CC3)nc2s1 was tested. Which survival did it give?
A: inactive: 97%

Q: With O=C(CSc1nc(-c2ccccc2)no1)N1CCCCC1 as the compound, how does the survival read?
A: active: 39%

Q: Which survival does the source give for CCOC(=O)N1CCc2c(sc3c2c(=O)n(CCc2ccccc2)c(=O)n3Cc2ccc(F)cc2)C1 here?
A: inactive: 100%

Q: COc1ccc(C(=O)CN2C(=O)N(c3ccc(C(C)=O)cc3)S(=O)(=O)c3ccccc32)cc1 was tested. Which survival did it give?
A: inactive: 89%

Q: How did the survival turn out when O=C(O)CN(c1cccc(C(F)(F)F)c1)S(=O)(=O)c1ccccc1 was run?
A: inactive: 58%

Q: For Cc1ccc(Cn2nnc(C(=O)Nc3ccc(F)c(F)c3)c2N)cc1, which survival is on record?
A: inactive: 77%

Q: COc1ccc(S(=O)(=O)N2CCC(n3c(C(F)(F)F)nc4cccnc43)CC2)cc1OC was tested. Which survival did it give?
A: inactive: 67%

Q: With CCCOc1ccc(C2C3CN(CC)CC=C3C(C#N)=C(N)C2(C#N)C#N)cc1OC (configuration not stated) as the compound, how does the survival read?
A: active: 0%

Q: Which survival does the source give for Cc1ccc(NC(=O)CN(C)S(=O)(=O)c2ccc3nc(C)sc3c2)c(C)c1 here?
A: inactive: 100%

Q: How did the survival turn out when O=C(NC1CC2CCCC(C1)N2CC(=O)N1CCCc2ccccc21)c1ccccc1 (configuration not stated) was run?
A: inactive: 85%

Q: With COc1cc(NC(=O)CSc2nc3nc(C)c(Cc4ccc(C)cc4)c(C)n3n2)cc(OC)c1 as the compound, how does the survival read?
A: inactive: 94%

Q: CCCSCCCNC(=O)c1ccc(Cn2c(=O)c3cccn3c3cccnc32)cc1 was tested. Which survival did it give?
A: inactive: 66%

Q: How did the survival turn out when CCC(=O)Nc1cccc(NC(=O)CSc2nnnn2C2CCCC2)c1 was run?
A: inactive: 106%

Q: Which survival does the source give for Cc1c(Cl)cccc1NC(=O)CN1C(=O)COc2ccc(S(=O)(=O)Nc3ccccc3)cc21 here?
A: inactive: 60%

Q: With CCCOC(=O)CSc1nnc2ccc3ccccc3n12 as the compound, how does the survival read?
A: inactive: 72%

Q: For CCOC(=O)c1cccc(NC(=O)C(C)n2c(C)c3cnn(-c4ccccc4)c(=O)c3c2C)c1 (configuration not stated), which survival is on record?
A: inactive: 105%

Q: How did the survival turn out when COc1ccc(NC(=O)c2ccc3c(c2)CCN3S(=O)(=O)c2ccc(C)cc2)cc1Cl was run?
A: inactive: 107%

Q: How did the survival turn out when CCC(Sc1nc2cc(OC)c(OC)cc2c(=O)n1CCc1ccc(Cl)cc1)C(=O)NCCOC (configuration not stated) was run?
A: inactive: 89%

Q: With CCOc1ccc(-c2cc(OC(=O)c3ccccc3)c3c(C)oc(C)c3c(=O)c2)cc1 as the compound, how does the survival read?
A: inactive: 64%

Q: With Cn1nnc2c(N3CCN(c4ccccc4F)CC3)ncnc21 as the compound, how does the survival read?
A: inactive: 83%

Q: With COc1cc2nc(SCc3cccc(Cl)c3)n3nc(CCn4nc(C)cc4C)nc3c2cc1OC as the compound, how does the survival read?
A: inactive: 79%

Q: For Cc1cc(C)cc(OCC(=O)Nc2ccc(-c3nc4ccccc4s3)cc2)c1, which survival is on record?
A: inactive: 68%

Q: How did the survival turn out when Cc1ccc(NC(=O)N(Cc2cn(C)c3ccccc23)C2CCCCC2)cc1C was run?
A: active: -13%

Q: How did the survival turn out when Cc1ccccc1C(=O)Nc1cccc(C(=O)OCc2cc(=O)n3c4c(sc3n2)CCCC4)c1 was run?
A: active: 46%

Q: For O=C(Nc1cccc(Cl)c1)N1CCC(n2nnc3cc(F)ccc32)CC1, which survival is on record?
A: inactive: 97%

Q: How did the survival turn out when CC(C)NC(=O)c1ccc(-n2c(-c3ccccc3)cc3c2CCCCC3)cc1 was run?
A: inactive: 108%

Q: Which survival does the source give for Nc1ncc(S(=O)(=O)NCc2ccc(Cl)cc2)cn1 here?
A: inactive: 90%

Q: Which survival does the source give for COc1ccc(Cl)cc1NC(=O)Cn1cc(C(=O)c2ccncc2)c(=O)c2cc(C)ccc21 here?
A: inactive: 81%

Q: Which survival does the source give for Cc1ccc(Nc2c(-c3ccncc3)nc3ccc(C)cn23)cc1 here?
A: inactive: 102%

Q: For CCOc1ccc(OCC)c(S(=O)(=O)N2CCN(c3cccc(C)c3C)CC2)c1, which survival is on record?
A: inactive: 118%
